Molecules are shown by their SMILES. The whole screen tested about 48,000 compounds, of which about 550 (1.1%) were called active. Not shown: some 4% with an inconclusive outcome. Cut-off read from the data, not from the text of the source: active = potency below about 15 µM; inconclusive = mostly about 16 µM to 33 µM; inactive = weaker than that. Some of the results follow.
Potency is the fitted concentration of half-maximal effect.

The target of this test is Lysosomal acid glucosylceramidase (Homo sapiens) (UniProt P04062). Kind of test: Glucocerebrosidase.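 Note: the screen sought inhibitors.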 The conditions noted are these: purified enzyme, resorufin glucoside fluorescence (screen aimed at inhibitors), 20 min. A digest of the protocol: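 Wild-type enzyme at 0.2 nM final in 50mM citric acid/KH2PO4, 10mM sodium taurocholate, 0.01% tween-20, pH 5.9, with resorufin beta-D-glucopyranoside at 30 uM final. Compounds titrated, 20 min at RT, red fluorescence read; AC50 from titration.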
UniProt P04062, sequence (P04062 whole entry, looked up): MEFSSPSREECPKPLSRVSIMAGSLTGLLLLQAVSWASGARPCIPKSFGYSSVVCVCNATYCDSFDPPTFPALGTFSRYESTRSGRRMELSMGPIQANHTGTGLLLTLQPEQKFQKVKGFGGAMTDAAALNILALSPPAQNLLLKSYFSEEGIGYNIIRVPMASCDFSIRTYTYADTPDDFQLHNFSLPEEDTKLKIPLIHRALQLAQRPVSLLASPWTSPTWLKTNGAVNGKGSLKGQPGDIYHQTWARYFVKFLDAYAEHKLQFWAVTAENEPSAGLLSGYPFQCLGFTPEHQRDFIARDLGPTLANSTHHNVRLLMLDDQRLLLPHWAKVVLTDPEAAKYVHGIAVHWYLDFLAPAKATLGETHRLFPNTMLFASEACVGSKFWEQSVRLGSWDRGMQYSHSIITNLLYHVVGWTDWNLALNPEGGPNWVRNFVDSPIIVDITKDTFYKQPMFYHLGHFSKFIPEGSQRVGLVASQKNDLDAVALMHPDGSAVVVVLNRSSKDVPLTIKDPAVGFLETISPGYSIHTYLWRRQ
As to `COCC(=O)Nc1cc(OC)c(Cl)cc1OC`, the Potency was inactive: > 76.9 µM. The value for `Cc1nc(N2CCN(c3ncccn3)CC2)c2oc3ccccc3c2n1` was “inactive”; that for `CC(=O)Nc1c(OC(C)=O)ccc2c(C)cc(=O)oc12` was inactive: > 76.9 µM. The value for `O=C(Nn1cnnc1)c1cc2c(s1)CCCCC2` was inactive: > 76.9 µM. The value for `C=CCSc1ncccc1C(=O)NCc1ccccc1` was inactive: > 76.9 µM. As to `COc1ccc(Cl)cc1C(=O)NCC(c1ccco1)N1CCCC1` (stereo not drawn), the Potency was inactive: > 76.9 µM. The value for `CCCCC(=O)Nc1ccc2oc(-c3ccncc3)nc2c1` was inactive: > 76.9 µM. As for `CCCCn1c(SCC(=O)NC(C)(C)C)nnc1-c1ccco1`, the figure is inactive: > 76.9 µM. The value for `Cc1nc(Nc2ccc3c(c2)OCCO3)c2nnn(Cc3ccccc3Cl)c2n1` was inactive: > 76.9 µM; that for `Cc1nn(-c2ccc(Cl)cc2)c(N)c1C(O)(CSc1nccn1C)C(F)(F)F` (stereo not drawn) was inactive: > 76.9 µM; that for `CCN(CC)c1ccc(NC(=O)c2[nH]c(C)c(C(C)=O)c2C)c(C)c1` was inactive: > 76.9 µM. Turning to `O=c1cc(CN2CCN(c3ccccc3)CC2)c2c(ccc3ccccc32)o1`, the Potency is inactive: > 76.9 µM.

Consider `O=C(Nn1nnnc1Nc1ccccc1)C12CC3CC(CC(C3)C1)C2`, for which the Potency result was “inactive”. As for `O=C(O)c1cccc(NC(=O)c2cccc(NC(=O)C3CCCO3)c2)c1` (stereo not drawn), the figure is inactive: > 76.9 µM. The value for `CC(=O)c1c(C)nc(C)nc1NC(=O)C(C)C` was inactive: > 76.9 µM. The value for `O=C(CSc1nnnn1-c1ccc2c(c1)CCC2)Nc1ccc2c(c1)OCCO2` was inactive: > 76.9 µM; that for `COC(=O)c1ccc2c(=O)n(CCN3CCOCC3)c(SCC(=O)c3ccccc3)nc2c1` was inactive: > 76.9 µM; that for `CCC(c1nnnn1Cc1ccc(F)cc1)N(CCCO)Cc1cc2cc3c(cc2[nH]c1=O)OCO3` (stereo not drawn) was inactive: > 76.9 µM. For the compound `CC(C(=O)NCC1CCCO1)n1cccc1C(=O)c1ccccc1` (stereo not drawn), the Potency is inactive: > 76.9 µM.

Regarding `Cc1ccccc1NC(=O)c1cc(N)ccc1N1CCCCC1`, the Potency is inactive: > 76.9 µM. Consider `COc1ccccc1N1CCN(C(=O)CSc2nc(C)c(Cc3ccccc3)c(=O)[nH]2)CC1`, for which the Potency was inactive: > 76.9 µM. The value for `COc1cccc(C2C(C#N)=C(N)OC3=C2C(=O)CC(c2ccco2)C3)c1OCc1ccc(F)cc1` (stereo not drawn) was inactive: > 76.9 µM; that for `CCCNS(=O)(=O)c1ccc(CCC(=O)NCC2CCCO2)cc1` (stereo not drawn) was inactive: > 76.9 µM; that for `Cn1c(SCC(=O)Nc2ccccc2-c2ccccc2)nnc1-c1ccco1` was inactive: > 76.9 µM. The value for `CC(=O)Cc1nsc(NC(=O)c2ccc(Br)o2)n1` was inactive: > 76.9 µM; that for `CC1Cc2ccccc2N1C(=O)CSc1nnnn1Cc1ccccc1` (stereo not drawn) was inactive: > 76.9 µM; that for `CC(=O)Nc1ccc(S(=O)(=O)Nc2ccc(S(=O)(=O)N3CCCCCC3)cc2)cc1` was inactive: > 76.9 µM. The value for `O=C(CNS(=O)(=O)c1ccc(Br)s1)NCc1ccc2c(c1)OCO2` was inactive: > 76.9 µM; that for `COc1ccc(C(O)CNc2ccc(C)cc2)cc1` (stereo not drawn) was inactive: > 76.9 µM; that for `CCOc1ccc(NC(=O)CCNc2c(N3CCCC3)c(=O)c2=O)cc1` was inactive: > 76.9 µM. Consider `Cc1c2c(n3c(nc4ccccc43)c1C#N)N(Cc1ccccn1)CC2`, for which the Potency was inactive: > 76.9 µM. Take `Cc1nc(NCC2CCCO2)nc2c1C(=O)CC(C)C2` (stereo not drawn): the Potency is inactive: > 76.9 µM. As for `CCOC(=O)N1CCC(NC(=O)C2CCN(S(=O)(=O)c3cnc[nH]3)CC2)CC1`, the figure is inactive: > 76.9 µM; as for `CCc1nc(Sc2nc(C)cc(C)n2)c2oc3ccccc3c2n1`, inactive: > 76.9 µM.

Regarding `O=C(O)c1cc2c(ccc3ccccc32)[nH]1`, the Potency was inactive: > 76.9 µM. In the case of `O=C(Nc1ccc2c(c1)OCCO2)c1ccc(Cl)c(S(=O)(=O)N2CCOCC2)c1`, the Potency is inactive: > 76.9 µM. The value for `N#C/C(=C(\O)c1ccco1)c1ccccn1` was inactive: > 76.9 µM; that for `CCOC(=O)N1CCN(S(=O)(=O)c2cc(Br)cc3c2N(C(C)=O)C(C)C3)CC1` (stereo not drawn) was inactive: > 76.9 µM.

On to `COCc1nnc(NC(=O)CS(=O)(=O)Cc2ccccc2)s1`, for which the Potency was inactive: > 76.9 µM.

For the compound `COc1cccc(NC(=O)CCCn2c(=O)[nH]c3ccccc3c2=O)c1`, the Potency was inactive: > 76.9 µM. The value for `COc1ccc(N(C)S(=O)(=O)c2cccc(C(=O)NC3=NCCS3)c2)cc1` was inactive: > 76.9 µM. The value for `Cc1ccc(S(=O)(=O)N2CC3(C)CN(S(=O)(=O)c4ccc(C)cc4)CC(C)(C2)C3O)cc1` (stereo not drawn) was inactive: > 76.9 µM; that for `O=C1c2ccccc2S(=O)(=O)N1CCOc1ccccc1` was inactive: > 76.9 µM; that for `COc1ccc(CNC(=O)c2cc(-c3ccccc3OC)on2)cc1` was active: 11 µM. Consider `Cn1nnc2cc(C(=O)NCCC3=CCCCC3)ccc21`, for which the Potency entry was “inactive”. The value for `O=C(c1ccc2c(c1)OCO2)N(c1ccc(F)cc1)C1C=CS(=O)(=O)C1` (stereo not drawn) was inactive: > 76.9 µM; that for `C/C=C/c1ccc(OCCSc2nc(C)cc(=O)[nH]2)c(OC)c1` was inactive: > 76.9 µM; that for `Cc1oc(-c2ccccc2F)nc1CN1CCC(C(=O)NCc2ccco2)CC1` was “inactive”. As for `Fc1ccccc1CSc1nnnn1-c1ccc2c(c1)OCO2`, the figure is inactive: > 76.9 µM. As for `CCc1ccccc1NC(=O)c1nnn(CC(=O)Nc2cccc(C)c2C)c1N`, the figure is inactive: > 76.9 µM; as for `COc1ccc(-c2cc(-n3c(C(F)(F)F)nc4ccccc43)n(CCC#N)n2)cc1`, inactive: > 76.9 µM. For the compound `COCCN(C(=O)Nc1ccc(OC)cc1OC)C1CCN(C(C)C)CC1`, the Potency result is “inactive”. As for `O=C(CSc1nnc2ccccn12)NCCN1C(=O)CSC1=O`, the figure is inactive: > 76.9 µM.

With `CCOC(=O)Cn1c(N2CCCCCC2)nc2c1c(=O)[nH]c(=O)n2C`, the Potency is inactive: > 76.9 µM. The value for `C/C=C/c1ccc(Oc2nnnn2-c2ccc(C(N)=O)cc2)c(OC)c1` was inactive: > 76.9 µM. The value for `Cn1c(C(=O)N2CCN(c3ccc(Cl)cc3)CC2)cc2c(=O)[nH]c3ccccc3c21` was inactive: > 76.9 µM; that for `Cc1ccc(N(CC(=O)NCc2cccs2)S(=O)(=O)c2cccs2)cc1` was inactive: > 76.9 µM; that for `CCCc1cc(C(N)=O)c(NC(C)=O)s1` was inactive: > 76.9 µM.

The record behind these values is PubChem BioAssay AID360 (National Center for Advancing Translational Sciences (NCATS), 2006).
